Test results published in the supplement of paper PMC11876631.
Numbering of substitutions follows the chain as printed. Names may count otherwise. ± gives the standard deviation of the averaged measurements. Laboratory Escherichia coli strains with one amino-acid change in an essential protein, pooled on minimal glucose agar with carbenicillin or gentamicin at twice the control MIC (plus kanamycin and chloramphenicol for the plasmids), 48 h. Fold change of barcode share against drug-free plates; higher = less susceptible. Active = above 20 in both replicates (the paper's putatively resistant). '<' = one read or none on drug, '>' = one read or none on a drug-free plate. Shares are relative, so most strains fall below 1 when a few take over. Listed are strains with at least 15 reads on both drug-free plates, and hits; most hits rest on fewer reference reads. Replicate rank correlation about 0.5. Edits are read from barcodes.

Target: Escherichia coli (laboratory strain)
Assay: barcode share on antibiotic plates over drug-free plates; higher = less susceptible
Protocol: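 A pool of E. coli strains, each edited to carry one amino-acid change in an essential protein, was grown for 48 h on minimal glucose agar with or without antibiotic; strain barcodes were sequenced; mean of two replicates.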

[1] = antibiotic: carbenicillin, 2× MIC (3.1 µg/mL)
[2] = antibiotic: gentamicin, 2× MIC (MIC 0.45 µg/mL)

B1: secY L285Q (protein)
chain: MAKQPGLDFQSAKGGLGELKRRLLFVIGALIVFRIGSFIPIPGIDAAVLAKLLEQQRGTIIEMFNMFSGGALSRASIFALGIMPYISASIIIQLLTVVHPTLAEIKKEGESGRRKISQYTRYGTLVLAIFQSIGIATGLPNMPGMQGLVINPGFAFYFTAVVSLVTGTMFLMWLGEQITERGIGNGISIIIFAGIVAGLPPAIAHTIEQARQGDLHFLVLLLVAVLVFAVTFFVVFVERGQRRIVVNYAKRQQGRRVYAAQSTHLPLKVNMAGVIPAIFASSIIQFPATIASWFGGGTGWNWLTTISLYLQPGQPLYVLLYASAIIFFCFFYTALVFNPRETADNLKKSGAFVPGIRPGEQTAKYIDKVMTRLTLVGALYITFICLIPEFMRDAMKVPFYFGGTSLLIVVVVIMDFMAQVQTLMMSSQYESALKKANLKGYGR
- fold change of barcode share [1]: 0.287 ± 0.015
- fold change of barcode share [2]: 0.0604 ± 0.08

B2: secY L285D (protein)
chain: B1 chain with Q285D
- fold change of barcode share [1]: 0.101 ± 0.056
- fold change of barcode share [2]: < 0.01

B3: secY L285P (protein)
chain: B1 chain with Q285P
- fold change of barcode share [1]: 0.335 ± 0.21
- fold change of barcode share [2]: 0.347 ± 0.45

B4: secY F286A (protein)
chain: B1 chain with Q285L, F286A
- fold change of barcode share [1]: 0.471 ± 0.2
- fold change of barcode share [2]: < 0.00494

B5: secY F286W (protein)
chain: B1 chain with Q285L, F286W
- fold change of barcode share [1]: 0.181 ± 0.012
- fold change of barcode share [2]: < 0.00447

B6: secY F286Q (protein)
chain: B1 chain with Q285L, F286Q
- fold change of barcode share [1]: 0.448 ± 0.14
- fold change of barcode share [2]: 0.00757 ± 0.0052

B7: secY F286D (protein)
chain: B1 chain with Q285L, F286D
- fold change of barcode share [1]: 0.23 ± 0.016
- fold change of barcode share [2]: < 0.00534

B8: secY F286P (protein)
chain: B1 chain with Q285L, F286P
- fold change of barcode share [1]: 0.339 ± 0.076
- fold change of barcode share [2]: < 0.0033

B9: serB I65A (protein)
chain: MPNITWCDLPEDVSLWPGLPLSLSGDEVMPLDYHAGRSGWLLYGRGLDKQRLTQYQSKLGAAMVAVAAWCVEDYQVIRLAGSLTARATRLAHEAQLDVAPLGKIPHLRTPGLLVMDMDSTAIQIECIDEIAKLAGTGEMVAEVTERAMRGELDFTASLRSRVATLKGADANILQQVRENLPLMPGLTQLVLKLETLGWKVAIASGGFTFFAEYLRDKLRLTAVVANELEIMDGKFTGNVIGDIVDAQYKAKTLTRLAQEYEIPLAQTVAIGDGANDLPMIKAAGLGIAYHAKPKVNEKAEVTIRHADLMGVFCILSGSLNQK
- fold change of barcode share [1]: 0.334 ± 0.093
- fold change of barcode share [2]: 0.0139 ± 0.0077

B10: serB I65P (protein)
chain: B9 chain with A65P
- fold change of barcode share [1]: 0.227 ± 0.068
- fold change of barcode share [2]: < 0.00903

B11: serB V71A (protein)
chain: B9 chain with A65I, V71A
- fold change of barcode share [1]: 0.566 ± 0.08
- fold change of barcode share [2]: 0.0103 ± 0.0014

B12: serB V71W (protein)
chain: B9 chain with A65I, V71W
- fold change of barcode share [1]: 0.5 ± 0.054
- fold change of barcode share [2]: 0.00859 ± 0.0069
